Laboratory results: the supplement of paper PMC12297408
Counter-ions that a name gives are not always drawn. About 40 (3%) of roughly 1,300 compounds showed activity. The list shows a part of the results.

Test system: Plasmodium falciparum NF54/iGP1_RE9H ulg8 stage V gametocytes
Assay: gametocyte viability (luciferase signal relative to DMSO control) (% of DMSO control); higher = less gametocytocidal activity, active = 50 or less
Conditions: exposure time: 72 h
In short: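 In 96-well plates holding nanolitre spots of compound (10 mM DMSO stocks), NF54/iGP1_RE9Hulg8 stage V gametocytes from day 12 were added at ~2.5% gametocytemia and 3% hematocrit in medium with 0.5% Albumax II, giving single wells at 10 µM or 1 µM. Incubation lasted 72 h at 37 °C. Each 90 µl sample then received 10 µl D-luciferin (30 mg/ml) before luminescence reading on an IVIS Lumina II, and viability was normalized to the mean of DMSO vehicle wells on the same plate.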

Structure (SMILES) | gametocyte viability (concentration: 1 µM) | gametocyte viability (concentration: 10 µM)
CC[N+](CC)(CC)CCOc1cccc(OCC[N+](CC)(CC)CC)c1OCC[N+](CC)(CC)CC [Gallamine triethiodide] | inactive: 85.5 | inactive: 86.2
NS(=O)(=O)c1cc2c(cc1Cl)NC(CC1CCCC1)NS2(=O)=O (stereo not drawn) [Cyclopenthiazide] | inactive: 90 | inactive: 95.6
CC(C)(C)NCC(O)c1cc(O)cc(O)c1 (stereo not drawn) [Terbutaline hemisulfate] | inactive: 92 | inactive: 85
CCOc1ccc(NC(C)=O)cc1 [Phenacetin] | inactive: 85.3 | inactive: 87.3
CN1CCC[C@@H]1CCO[C@](C)(c1ccccc1)c1ccc(Cl)cc1 [Clemastine fumarate] | inactive: 91.5 | inactive: 63
COc1cc2ncnc(Nc3ccc(F)c(Cl)c3)c2cc1OCCCN1CCOCC1 [Gefitinib] | inactive: 95.8 | inactive: 85.9
CC(C(=O)O)c1ccc(C(=O)c2cccs2)cc1 (stereo not drawn) [Suprofen] | inactive: 88.1 | inactive: 84.9
CCCCC[C@H](O)/C=C/[C@H]1[C@H](O)CC(=O)[C@@H]1CCCCCCC(=O)O [Alprostadil] | inactive: 82.4 | inactive: 86.2
CCN1CCC[C@H]1CNC(=O)c1c(O)c(Cl)cc(Cl)c1OC [Raclopride] | inactive: 89.4 | inactive: 89
COC(=O)C1=C(C)NC(C)=C(C(=O)OCC(C)C)C1c1ccccc1[N+](=O)[O-] (stereo not drawn) [Nisoldipine] | inactive: 83.7 | inactive: 79.4
COC(=O)C1=C(C)NC(C)=C(C(=O)OCCN(C)Cc2ccccc2)C1c1cccc([N+](=O)[O-])c1 (stereo not drawn) [Nicardipine hydrochloride] | inactive: 76 | inactive: 76.4
CN1CCN(c2c(F)cc3c(=O)c(C(=O)O)cn4c3c2SCC4)CC1 [Rufloxacin] | inactive: 87.6 | inactive: 87.7
Cc1ccccc1C(OCCN(C)C)c1ccccc1 (stereo not drawn) [Orphenadrine hydrochloride] | inactive: 84.4 | inactive: 87.5
CC(C)NCC(O)c1ccc(O)c(O)c1 (single isomer, unassigned; (-)) [(-)-Isoproterenol hydrochloride] | inactive: 91.5 | inactive: 89.5
NC(=O)NC1NC(=O)NC1=O (stereo not drawn) [Allantoin] | inactive: 86.6 | inactive: 84.4
CN(C)CCOC(c1ccc(Cl)cc1)c1ccccn1 (stereo not drawn) [Carbinoxamine maleate salt] | inactive: 84.3 | inactive: 78.5
O=C1CCc2ccc(OCCCCN3CCN(c4cccc(Cl)c4Cl)CC3)cc2N1 [Aripiprazole] | inactive: 96.9 | inactive: 91.5
CCN(CC)CCOc1ccc(C(=C(Cl)c2ccccc2)c2ccccc2)cc1 [Clomiphene citrate (Z,E)] | inactive: 82.4 | inactive: 95.2
CCCCNc1ccc(C(=O)OCCN(C)C)cc1 [Tetraca? hydrochloride] | inactive: 87 | inactive: 89
CN1CCOC(c2ccccc2)c2ccccc2C1 (stereo not drawn) [Nefopam hydrochloride] | inactive: 89.7 | inactive: 87

Structure (SMILES) | gametocyte viability (concentration: 1 µM) | gametocyte viability (concentration: 10 µM)
CN1CCC(=C2c3ccccc3CCc3sccc32)CC1 [Pizotifen malate] | inactive: 90 | inactive: 88.9
Cc1cnc(C(=O)NCCc2ccc(S(=O)(=O)NC(=O)NC3CCCCC3)cc2)cn1 [Glipizide] | inactive: 84.2 | inactive: 87.4
O=C1[C@H](CC[C@H](O)c2ccc(F)cc2)[C@@H](c2ccc(O)cc2)N1c1ccc(F)cc1 [Ezetimibe] | inactive: 98.8 | inactive: 94.4
COc1ccccc1N1CCN(CCCCNC(=O)c2ccc3ccccc3c2)CC1 | inactive: 82.8 | inactive: 73.7
CCC1NC(=O)c2cc(S(N)(=O)=O)c(Cl)cc2N1 (stereo not drawn) [Quinethazone] | inactive: 87.2 | inactive: 84.7
Cn1c(=O)c2c(ncn2CCO)n(C)c1=O [Etofylline] | inactive: 80.9 | inactive: 82.4
CC(C)NCC(O)c1cc(O)cc(O)c1 (stereo not drawn) [Metaproterenol sulfate, orciprenaline sulfate] | inactive: 94.6 | inactive: 93.6
O=C(O)CN(CCN(CC(=O)O)CC(=O)O)CCN(CC(=O)O)CC(=O)O [Pentetic acid] | inactive: 101 | inactive: 101
C#CCN(C)CCCOc1ccc(Cl)cc1Cl [Clorgyline hydrochloride] | inactive: 83 | inactive: 80.5
CCC(=O)OCC(=O)[C@@]1(OC(=O)CC)[C@@H](C)C[C@H]2[C@@H]3CCC4=CC(=O)C=C[C@]4(C)[C@@]3(Cl)[C@@H](O)C[C@@]21C [Beclomethasone dipropionate] | inactive: 85.8 | inactive: 80.6
CCN(CC)Cc1cc(Nc2ccnc3cc(Cl)ccc23)ccc1O [Amodiaquin dihydrochloride dihydrate] | inactive: 76.8 | inactive: 62.6
COc1ccccc1N1CCN(CCCNc2cc(=O)n(C)c(=O)n2C)CC1 [Urapidil hydrochloride] | inactive: 75.6 | active: 48.5
COc1nc(N)nc2c1ncn2[C@@H]1O[C@H](CO)[C@@H](O)[C@@H]1O [Nelarabine] | inactive: 82 | inactive: 80.4
O=C1NCCN1CCN1CCC(c2cn(-c3ccc(F)cc3)c3ccc(Cl)cc23)CC1 [Sertindole] | inactive: 97.7 | inactive: 82.3
O=C1CCC(N2C(=O)c3ccccc3C2=O)C(=O)N1 (stereo not drawn) [Thalidomide] | inactive: 85.3 | inactive: 86.6
Clc1ccc(C(Cn2ccnc2)OCc2csc3c(Cl)cccc23)c(Cl)c1 (stereo not drawn) [Sertaconazole nitrate] | inactive: 90.8 | inactive: 78.8
CC(=O)OCC1=C(C(=O)O)N2C(=O)[C@@H](NC(=O)Cc3cccs3)[C@H]2SC1 [Cephalothin sodium salt] | inactive: 87 | inactive: 92.3
CCN(CC)CCNC(=O)COc1ccc(OC)cc1 [Mefexamide hydrochloride] | inactive: 98.9 | inactive: 98.9
CC1(C)S[C@@H]2[C@H](NC(=O)Cc3ccccc3)C(=O)N2[C@H]1C(=O)O [Benzylpenicillin sodium] | inactive: 81.6 | inactive: 84.5
CCCCc1nc(Cl)c(CO)n1Cc1ccc(-c2ccccc2-c2nnn[nH]2)cc1 [Losartan] | inactive: 83.7 | inactive: 81.1

Structure (SMILES) | gametocyte viability (concentration: 1 µM) | gametocyte viability (concentration: 10 µM)
CCC(C)n1ncn(-c2ccc(N3CCN(c4ccc(OCC5COC(Cn6cncn6)(c6ccc(Cl)cc6Cl)O5)cc4)CC3)cc2)c1=O (stereo not drawn) [Itraconazole] | inactive: 80.5 | inactive: 64
Cc1cccc(Nc2ccccc2C(=O)O)c1C [Mefenamic acid] | inactive: 94 | inactive: 94.6
C[n+]1ccccc1/C=N/O [Pralidoxime chloride] | inactive: 97.1 | inactive: 95.4
O=C(O)CCNC(=O)c1ccc(/N=N/c2ccc(O)c(C(=O)O)c2)cc1 [Balsalazide Sodium] | inactive: 83.6 | inactive: 87.9
O=C1OC(CN2CCOCC2)CN1/N=C/c1ccc([N+](=O)[O-])o1 (stereo not drawn) [Furaltadone hydrochloride] | inactive: 89.7 | inactive: 93.4
CNCCCN1c2ccccc2CCc2ccccc21 [Desipramine hydrochloride] | inactive: 80.3 | inactive: 80.5
Nc1nc(O)c2ncn(CCC(CO)CO)c2n1 [Penciclovir] | inactive: 83.5 | inactive: 81.8
Fc1ccc([C@@H]2CCNC[C@H]2COc2ccc3c(c2)OCO3)cc1 [Paroxetine Hydrochloride] | inactive: 89.6 | inactive: 51.5
O=c1[nH]cnc2c1ncn2[C@H]1CC[C@@H](CO)O1 [Didanosine] | inactive: 81.7 | inactive: 84
CN(C/C=C/C#CC(C)(C)C)Cc1cccc2ccccc12 [Terbinafine] | inactive: 81.4 | inactive: 85.6
NCCC[C@H](N)CC(=O)N[C@H]1CNC(=O)[C@H]([C@H]2C[C@H](O)NC(N)=N2)NC(=O)/C(=C/NC(N)=O)NC(=O)[C@H](CO)NC(=O)[C@H](CO)NC1=O [Viomycin sulfate] | inactive: 95 | inactive: 96.5
CN(C)CCCN1c2ccccc2CCc2ccccc21 [Imipramine hydrochloride] | inactive: 96.7 | inactive: 92.4
NC(CO)C(=O)NNCc1ccc(O)c(O)c1O (stereo not drawn) [Benserazide hydrochloride] | inactive: 89.1 | inactive: 88.2
CN1CCC(OC(c2ccccc2)c2ccccc2)CC1 [Diphenylpyraline hydrochloride] | inactive: 88.9 | inactive: 100
O=C(Oc1cccc2cccnc12)c1ccccc1 [Benzoxiquine] | inactive: 83.5 | inactive: 83.4
Clc1ccc(Nc2nnc(Cc3ccncc3)c3ccccc23)cc1 [Vatalanib] | inactive: 89.2 | inactive: 69.1
CC(C)CN(C[C@@H](O)[C@H](Cc1ccccc1)NC(=O)O[C@H]1CO[C@H]2OCC[C@H]21)S(=O)(=O)c1ccc(N)cc1 [Darunavir] | inactive: 82.6 | inactive: 81.5
O=C1c2cccc3c2[C@H](CCC3)CN1[C@@H]1CN2CCC1CC2 [Palonosetron hydrochloride] | inactive: 85.5 | inactive: 81.6
NCC[C@H](O)C(=O)N[C@@H]1C[C@H](N)[C@@H](O[C@H]2O[C@H](CN)[C@@H](O)[C@H](O)[C@H]2O)[C@H](O)[C@H]1O[C@H]1O[C@H](CO)[C@@H](O)[C@H](N)[C@H]1O [Amikacin hydrate] | inactive: 86.2 | inactive: 85.6
